In patent US20210070829A1 (ZHEJIANG DOER BIOLOGICS, published 2021):

How the values were obtained:
human GLP-1 receptor = human GLP-1 receptor (human, UniProt P43220 24-463); assay: cell-based or functional assay
Glucagon receptor = assay: cell-based or functional assay

GLP-1R agonist activity EC50 (luciferase reporter) (human GLP-1 receptor): 13.7 nM | GCGR agonist activity EC50 (luciferase reporter) (Glucagon receptor): 21.2 nM
B1: C756L20F4 (Fc fusion)
chain: HSQGTFTSDYSKYLDEQAAQDFVQWLMNTKRNRNNIAGGGGSGGGGSGGGGSGGGGSGGGGSA[human IgG1 Fc with changes omitted here]
